Assay results published in patent US20250000946A1 (WUXI BIOLOGICS IRELAND, published 2025).

Assays:
[1] = target: T1, Human IL-2Rβ/γ (intermediate affinity IL-2 receptor) (human, UniProt P14784 27-551; P31785 23-369); experiment: FACS, HH cells
T1 construct: whole, on cells; also called IL-2Rβ/γc; IL-2Rβ (CD122) and γ (CD132)
T1 sequence (looked up) 1: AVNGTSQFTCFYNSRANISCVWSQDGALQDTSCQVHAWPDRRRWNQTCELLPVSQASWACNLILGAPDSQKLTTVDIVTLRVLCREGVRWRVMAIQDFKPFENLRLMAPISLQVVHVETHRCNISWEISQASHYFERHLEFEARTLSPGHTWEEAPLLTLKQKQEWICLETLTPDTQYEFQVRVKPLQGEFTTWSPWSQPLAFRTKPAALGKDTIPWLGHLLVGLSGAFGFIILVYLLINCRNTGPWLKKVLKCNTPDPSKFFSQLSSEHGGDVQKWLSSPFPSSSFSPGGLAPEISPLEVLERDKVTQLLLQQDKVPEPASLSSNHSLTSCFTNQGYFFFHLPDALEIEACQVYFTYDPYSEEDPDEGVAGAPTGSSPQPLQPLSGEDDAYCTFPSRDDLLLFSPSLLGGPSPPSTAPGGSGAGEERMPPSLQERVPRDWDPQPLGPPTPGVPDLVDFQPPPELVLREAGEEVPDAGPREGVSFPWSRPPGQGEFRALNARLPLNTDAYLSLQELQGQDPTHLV
T1 sequence (looked up) 2: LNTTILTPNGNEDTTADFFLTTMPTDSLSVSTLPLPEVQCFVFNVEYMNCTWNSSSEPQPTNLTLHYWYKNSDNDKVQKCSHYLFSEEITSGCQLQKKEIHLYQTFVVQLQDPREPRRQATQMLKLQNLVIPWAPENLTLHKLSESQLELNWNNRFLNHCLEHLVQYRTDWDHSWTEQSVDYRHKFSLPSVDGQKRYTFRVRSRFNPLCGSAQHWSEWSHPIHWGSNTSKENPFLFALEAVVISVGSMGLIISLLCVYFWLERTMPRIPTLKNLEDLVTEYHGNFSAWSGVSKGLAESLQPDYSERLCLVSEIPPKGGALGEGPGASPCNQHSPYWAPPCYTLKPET
Method: (§1) Human cutaneous T cell lymphoma HH cells, malignant non-Hodgkin's lymphoma NK92 cells and cutaneous T cell lymphoma MJ20 cells were used for binding assay. They both constitutively express IL-2Rβ (CD122) and […] (CD132), and NK92 and MJ20 also expresses IL-2Rα (CD25). HH, NK92 and MJ20 cells were cultured following ATCC guidance, then transferred to a 96-plate for binding analysis. Cells were incubated with IL-2/Fc fusion proteins at the indicated concentrations for 30 min at 4° C. to avoid internalization. Binding was detected by 2nd antibody of PE-anti-human Fc at 4° C. for another 30 min. The median fluorescence intensity (MFI) on HH and NK92 cells was measured using FACS.

[2] = target: T1, Human IL-2Rβ/γ (intermediate affinity …); experiment: FACS, HH cells; remark: listed apart in the source
Method: as §1

[3] = target: T1, Human IL-2Rβ/γ (intermediate affinity …); experiment: FACS, HH cells; EC50 fold vs T2U0.E44-1
Method: as §1

[4] = target: T2, Human IL-2Rα/β/γ complex (high affinity IL-2 receptor) (human, UniProt P01589 22-272; P14784 27-551; P31785 23-369); experiment: FACS, MJ20 cells; EC50 fold vs T2U0.E44-1
T2 construct: whole, on cells
T2 sequence (looked up) 1: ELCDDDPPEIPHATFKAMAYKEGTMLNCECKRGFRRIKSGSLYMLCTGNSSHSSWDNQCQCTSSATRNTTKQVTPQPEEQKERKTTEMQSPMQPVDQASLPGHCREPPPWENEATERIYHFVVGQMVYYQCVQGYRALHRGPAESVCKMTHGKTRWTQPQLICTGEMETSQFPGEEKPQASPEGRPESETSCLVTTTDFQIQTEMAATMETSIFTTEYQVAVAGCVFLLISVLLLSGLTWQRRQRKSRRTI
T2 sequence (looked up) 2: T1 sequence (looked up) 1
T2 sequence (looked up) 3: T1 sequence (looked up) 2
Method: as §1

[5] = target: T3, W369-hPro2.ECD.His, IL2Rβ ECD (human, UniProt P14784 27-239); experiment: SPR Biacore 8K; set-up for IL-2Rβ not described
T3 construct: Entry includes linker and C-terminal 6xHis tag; also called CD122
T3 sequence: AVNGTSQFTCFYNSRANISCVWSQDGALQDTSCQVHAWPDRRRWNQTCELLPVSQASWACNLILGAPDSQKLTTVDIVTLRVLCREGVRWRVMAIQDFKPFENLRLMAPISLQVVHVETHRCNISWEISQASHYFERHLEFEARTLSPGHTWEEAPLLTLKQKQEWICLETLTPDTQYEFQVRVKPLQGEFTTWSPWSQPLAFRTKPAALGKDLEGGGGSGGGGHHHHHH

[6] = target: T4, W3XX115-hPro1.ECD.His, IL2Rα ECD (Homo sapiens (Human), UniProt P01589 22-213); experiment: SPR Biacore 8K; variant captured via anti-human Fc, IL-2Rα ECD-His injected; steady state
T4 construct: Entry includes the C-terminal 6xHis tag; also called CD25
T4 sequence: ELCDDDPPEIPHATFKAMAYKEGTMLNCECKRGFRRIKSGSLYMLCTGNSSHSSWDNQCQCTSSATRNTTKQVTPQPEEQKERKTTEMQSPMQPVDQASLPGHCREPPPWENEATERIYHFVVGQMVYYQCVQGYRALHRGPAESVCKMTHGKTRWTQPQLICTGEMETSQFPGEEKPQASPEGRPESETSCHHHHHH
Method: IL-2 variants binding affinity to IL-2 receptor were detected by SPR using Biacore 8K. For IL-2Rα binding assay, each variant was captured on anti-human Fc immobilized CM5 sensor chip (cytiva). W3XX115-hPro1.ECD.His at different concentrations were injected over the sensor chip at a flow rate of 30 uL/min for an association phase of 60 s, followed by 90 s dissociation. The chip was then regenerated by 10 mM Glycine-HCl pH1.5 after each binding cycle. For IL-2Rγ binding assay, IL-2 variants were mixed with W369-hPro2.ECD.His as 1:1 before assay, were detected by SPR using Biacore 8K. W3XX115-hPro1.ECD.His was captured on anti-His immobilized CM5 sensor chip (cytiva). The mixture were injected over the sensor chip as described above. The sensorgrams of blank surface and buffer channel were subtracted from the test sensorgrams. The experimental data was fitted by steady state affinity model. Molecular weight of W3XX115-hPro1.ECD.His or W369-hPro1.ECD.His was used to calculate the molar concentration of analyte.
For T3U0.E44-1 and T2U0.E44-33, no binding to IL-2Rα was detected.

EC50 [1]: 53.8 nM | EC50 [2]: 52.6 nM | Affinity reduction [3]: 1 fold | Affinity reduction [4]: 1 fold | Kd [5]: 3100 nM | Kd [6]: 110 nM
B1: W3XX115-T2U0.E44-1.uIgG4V322 (Fc fusion)
chain: [no letters for about 150 residues]ESKYGPPCPPCPAPEAAGGPSVFLFPPKPKDTLMISRTPEVTCVVVDVSQEDPEVQFNWYVDGVEVHNAKTKPREEQFNSTYRVVSVLTVLHQDWLNGKEYKCKVSNKGLPSSIEKTISKAKGQPREPQVYTLPPCQEEMTKNQVSLWCLVKGFYPSDIAVEWESNGQPENNYKTTPPVLDSDGSFFLYSRLTVDKSRWQEGNVFSCSVMHEALHNHYTQKSLSLSLG
heavy: EIQLQQSGPELVKPGASVKVSCKASGYSFTDYNMYWVKQSHGESLEWIGYIDPYNGGTRYNQKFKGKATLTVDKSSSTAFMHLNSLTSEDSAVYYCARNGHWDGAWFAYWGQGTLVTVSAASTKGPSVFPLAPCSRSTSESTAALGCLVKDYFPEPVTVSWNSGALTSGVHTFPAVLQSSGLYSLSSVVTVPSSSLGTKTYTCNVDHKPSNTKVDKRVESKYGPPCPPCPAPEAAGGPSVFLFPPKPKDTLMISRTPEVTCVVVDVSQEDPEVQFNWYVDGVEVHNAKTKPREEQFNSTYRVVSVLTVLHQDWLNGKEYKCKVSNKGLPSSIEKTISKAKGQPREPQVCTLPPSQEEMTKNQVSLSCAVKGFYPSDIAVEWESNGQPENNYKTTPPVLDSDGSFFLVSRLTVDKSRWQEGNVFSCSVMHEALHNHYTQKSLSLSLG
light: DIQMNQSPSSLSASLGDTITITCHASQNINVWLSWYQQKPGNIPKLLIYKASNLHTGVPSRFSGSRSGTGFTLTISSLQPEDIATYYCHQGQSYPFTFGSGTKLEIKRTVAAPSVFIFPPSDEQLKSGTASVVCLLNNFYPREAKVQWKVDNALQSGNSQESVTEQDSKDSTYSLSSTLTLSKADYEKHKVYACEVTHQGLSSPVTKSFNRGEC
notes: WT IL-2, no linker, IgG4 Fc with FALA, one Fab arm (E44 format); also called T20.E44-1; wild-type IL-2

Like-named read-outs stand apart in the source and are kept apart here.
